# Experimental data reported in ChEMBL document CHEMBL4888484, “Replenishing the malaria drug discovery pipeline: Screening and hit evaluation of the MMV Hit Generation Library 1 (HGL1) against asexual blood stage Plasmodium falciparum ,using a nano luciferase reporter read-out” (2022).
# Among all 150,000 compounds or so, about 540 (0.36%) showed an effect of 50% or more. Some of the results follow.
# Test system: Plasmodium falciparum
# Test: Primary screen in NF54 nanoGlo assay, in single point, at 2uM, 72h; a lower Z score goes with more inhibition
# Format: functional, Erythrocyte
# Conditions: timepoint 72 hour
Structure (SMILES),% Inhibition [%],Z score
CCOC1(C(=O)NC2CCCC(C(=O)N(C)C)C2)CCCC1 (stereo unspecified),-4,0.46
Cc1nn(-c2ccccc2Cl)c(Cl)c1CNC[C@H](O)CN1CCCC1,-1,0.07
CC1(C)C[C@H](COc2ccncc2)C(C)(C)O1,-2,0.18
CC(=O)Nc1ccc2nn(-c3cccc4ccccc34)nc2c1,-20,2.72
CN1CCN([C@H]2CCN(c3ccnc4ccc(Cl)cc34)C[C@H]2CCCO)CC1,41,-4.86
O=C(c1cc(F)ccc1Cl)N1CCN(c2ncccc2-c2nnc(C3CC3)o2)CC1,-7,1.08
Cn1ncc2c(N3CC[C@H](n4cc(C5CC5)nn4)C3)ncnc21,0,0.07
COC[C@H]1CCCN(C(=O)Cn2cnc3c2CCCC3)CC1,-15,2.87
CCN1CCN([C@H]2CCN(Cc3nc(-c4ccc(OC(F)F)c(OC)c4)no3)C2)CC1,-14,1.37
Cc1nccc(O[C@H]2CCCN(S(=O)(=O)C3CC3)C2)n1,-3,0.61
COc1ccc([C@H](CNC(=O)C2CCCC2)N2CCCCC2)cc1,5,-0.65
CCCc1nc(N2CCC[C@H](CNC(=O)c3cnn(C)c3C)C2)no1,6,-0.78
CS(=O)(=O)N1CC[C@@H](C(=O)Nc2ccc(F)cc2F)Oc2ccc(Cl)cc21,9,-1.08
CC(NC(=O)C(c1ccccc1)c1ccccc1)C1CC2CCC1C2 (stereo unspecified),6,-0.76
c1cc(-c2nc3c(c(NC4CC4)n2)CCN(c2cnccn2)CC3)ccn1,-3,0.46
COC1(C(=O)N2CCO[C@H]3CCC[C@H]32)CCC1,-3,0.34
CC(CN(C)C(=O)NCCC1CCCO1)c1nccs1 (stereo unspecified),-5,0.69
CCOc1ncc(C(=O)N2C[C@@H]3CS(=O)(=O)C[C@@H]3C2)cc1Cl,-9,1.49
O=C(NCCc1ccc(F)cc1)C1CCCCC1C(=O)N1CCCC1 (stereo unspecified),-12,1.89
Cn1cnnc1NCc1cnc(C(C)(C)C)s1,8,-0.92
CCN(C(=O)Cn1cnc2c1c(=O)n(C)c(=O)n2C)c1ccccc1C,-16,2.98
COc1cc(N(C)CCc2ccncc2)ncn1,-2,0.23
O=C(NCc1ccc([C@@H](O)c2ccsc2)s1)NC1CCOCC1,-5,0.63
CC(C)(C)n1nnc(CC(=O)N(Cc2cccnc2)c2ccc(F)cc2)n1,-1,0.19
CC(C)Oc1cc(N2CCN(Cc3cc(C(C)C)no3)CC2)nc(N)n1,-10,1.92
CN(C)CCn1ccnc1C1CCN(C(=O)c2nc3ccccc3[nH]2)CC1,-12,1.47
CCCN(Cc1ccc(Cl)cc1)C(=O)NCCCC(=O)O,-2,0.28

Structure (SMILES),% Inhibition [%],Z score
Cc1ccc(C(N)=O)cc1OC(=O)c1cc(C)n(-c2ccc(F)cc2F)n1,-5,0.77
CC(C)C[C@@H](CN(C)C)NC(=O)c1[nH]ncc1Br,0,0.04
O=C(Nc1ccc(C(=O)N2CCCCC2)cc1)Nc1ccc2c(c1)OCO2,-17,3.38
Cc1ccc2c(c1)Oc1ccccc1C(N1CCN(C(=O)COc3ccccc3)[C@@H](C)C1)=N2,-19,3.11
Cc1cc(C(=O)N[C@H]2CCCc3ccccc32)c(C)o1,-7,1.01
Cc1cc(O)nc(C(=O)N(C)C[C@H]2CCCO2)c1,6,-1.21
C[C@@H](c1ccccc1)n1nccc1NC(=O)CCN1CCCCC1=O,-11,2.16
CCOc1ccc(CN2CCc3nc(N4CCOCC4)ncc3C2)cc1OC,1,-0.14
CC(=O)N1CCC[C@H](c2ncc(Cc3ccccc3Cl)s2)C1,-8,1.21
O=C(Nc1ccccc1)[C@H]1CCc2nc(N3CCCC3)ncc2C1,-14,2.67
Cc1cc(F)ccc1N1CCC[C@H](NC(=O)c2ccc[nH]2)C1=O,-6,1.2
COc1cc(NC(=O)c2sc(Nc3cc(C)ccn3)nc2C)cc(OC)c1OC,-6,0.93
COc1ccc(CNC(=O)CCc2nnc3c4cc(-c5cc(C)ccc5C)nn4ccn23)cc1,0,0.01
CC1CCN(C(=O)NCc2ccc(-n3cncn3)nc2)CC1,-3,0.54
CC(NS(C)(=O)=O)C(=O)NC1CCN(c2ccc(F)c(Cl)c2)C1 (stereo unspecified),-6,0.73
O=C(Nc1nnn[nH]1)C1CC1c1ccccc1OC(F)(F)F (stereo unspecified),-9,1.32
C[C@@]1(C(=O)N2CC(S(C)(=O)=O)C2)CC=CCC1,-10,1.79
CCc1cc(Nc2ccc3ccccc3c2)n2nc(-c3cccnc3)nc2n1,19,-3.07
O=S1(=O)CCC[C@H](CS(=O)(=O)N2CCc3cc(Cl)ccc32)C1,12,-1.46
O=C1CCCN1C[C@H]1CCCN(c2ncnc3c2Cc2ccccc2OC3)C1,-14,2.61
CC[C@H](C)N(CC(=O)OC(C)(C)C)Cc1cc(C)on1,-11,1
CCc1ncsc1NS(=O)(=O)c1ccc(OCC(F)F)cc1,-18,2.02
Cc1nn(C)c2nc(-c3ccncc3)nc(N(C)Cc3cc(C4CC4)[nH]n3)c12,1,-0.25
COc1cccc([C@H](CN2CCN(S(=O)(=O)c3cc(F)cc(F)c3)CC2)OCc2ccc(C)cc2)c1,-3,0.56
CC(C)[C@H](Nc1ccc2c(c1)C(=O)NCC2)c1ccc(F)cn1,-6,1.21
CCc1ccc(C(=O)NCC(C)(C)N2CC(C)CC(C)C2)cc1S(=O)(=O)N1CCOCC1 (stereo unspecified),-13,1.54
